Results published in the RNAGym collection of RNA variant scans (doi:10.7554/elife.90254).
Read counts are not given, so values of variants with three or more changes are uncertain.

B1: LINE1-mini (parent)
chain: GGCAGAGCUCAACACAGCGUGGCAAAGUGGCUGUGGCUAGACUGCC

Variants of: B1
Assay: self-cleavage, relative activity (ratio to wild type); higher = more cleavage; in vitro, sequencing; the parent is a self-cleaving ribozyme

Q: For C15G G29C C37A G40U, which self-cleavage is on record?
A: Its self-cleavage is 0.15.

Q: With C15A G21U G29A G44C as the variant, how does the self-cleavage read?
A: The self-cleavage was 0.04.

Q: With C15G U28G G29C as the variant, how does the self-cleavage read?
A: Its self-cleavage is 0.41.

Q: Which self-cleavage does the source give for C15U G19A A25G U34C A39C here?
A: The self-cleavage was 0.01.

Q: For C15G U20A G36U, which self-cleavage is on record?
A: The self-cleavage was 0.01.

Q: For C15G G19A U34G, which self-cleavage is on record?
A: The self-cleavage was 0.02.

Q: For C15A G27C G30U C45A, which self-cleavage is on record?
A: The self-cleavage was 0.01.

Q: Which self-cleavage does the source give for C15A G27U G35C U38C here?
A: The self-cleavage was 0.

Q: With C15G U20A A26G C31U U38G U43C as the variant, how does the self-cleavage read?
A: Its self-cleavage is 0.

Q: For C15A U34G U38A A39U, which self-cleavage is on record?
A: The self-cleavage was 0.05.

Q: With C15G A25G G30U G33U as the variant, how does the self-cleavage read?
A: Its self-cleavage is 0.03.

Q: Which self-cleavage does the source give for C15G U20G G36A G40C C42G G44A here?
A: Its self-cleavage is 0.01.

Q: For C15G C31A G36U, which self-cleavage is on record?
A: Its self-cleavage is 0.06.

Q: For C15A G29C G36U, which self-cleavage is on record?
A: The self-cleavage was 0.04.

Q: With C15G G22C G29C as the variant, how does the self-cleavage read?
A: Its self-cleavage is 0.19.

Q: For C15G U20C C45A, which self-cleavage is on record?
A: Its self-cleavage is 0.03.

Q: For C15G C37G G40A, which self-cleavage is on record?
A: The self-cleavage was 0.01.

Q: For C15G A25U G36U U43G, which self-cleavage is on record?
A: The self-cleavage was 0.

Q: Which self-cleavage does the source give for C15G C23G U43C here?
A: Its self-cleavage is 0.03.

Q: Which self-cleavage does the source give for C15G G29A G44A here?
A: Its self-cleavage is 0.16.

Q: With C15U C31G U38A as the variant, how does the self-cleavage read?
A: Its self-cleavage is 0.17.

Q: Which self-cleavage does the source give for C15U C18U U20G A41U here?
A: Its self-cleavage is 0.04.

Q: Which self-cleavage does the source give for C15G G17C G44A here?
A: Its self-cleavage is 0.04.

Q: For C15G G35A U43G, which self-cleavage is on record?
A: The self-cleavage was 0.

Q: Which self-cleavage does the source give for C15A U34C C37A here?
A: Its self-cleavage is 0.02.

Q: For C15U A24G C37U, which self-cleavage is on record?
A: The self-cleavage was 0.04.

Q: With C15A G27A A39C C45U as the variant, how does the self-cleavage read?
A: The self-cleavage was 0.04.

Q: Which self-cleavage does the source give for C15A G21A G22C here?
A: The self-cleavage was 0.11.

Q: Which self-cleavage does the source give for C15A G29U C37A here?
A: Its self-cleavage is 0.05.

Q: Which self-cleavage does the source give for C15G C18U U28G G30U here?
A: The self-cleavage was 0.02.

Q: Which self-cleavage does the source give for C15U G17C G19U G40U here?
A: The self-cleavage was 0.01.

Q: Which self-cleavage does the source give for C15U G19C G27U G36U here?
A: The self-cleavage was 0.07.

Q: Which self-cleavage does the source give for C15G G17A C23A G40A U43G here?
A: Its self-cleavage is 0.

Q: Which self-cleavage does the source give for C15A G22U C31A U43A C46U here?
A: The self-cleavage was 0.02.

Q: Which self-cleavage does the source give for C15U C23G C37U here?
A: The self-cleavage was 0.08.

Q: Which self-cleavage does the source give for C15G A26C G36C C37A here?
A: The self-cleavage was 0.02.

Q: Which self-cleavage does the source give for C15G C18A A26U here?
A: The self-cleavage was 0.02.

Q: For C15G G22A G33A U34A C37G, which self-cleavage is on record?
A: Its self-cleavage is 0.02.

Q: For C15A U38G A41C U43G, which self-cleavage is on record?
A: The self-cleavage was 0.03.

Q: Which self-cleavage does the source give for C15G G19C C46U here?
A: Its self-cleavage is 0.11.

Q: With C15G G30C C31G A39G as the variant, how does the self-cleavage read?
A: The self-cleavage was 0.

Q: For C15G A16C G27C, which self-cleavage is on record?
A: The self-cleavage was 0.03.

Q: Which self-cleavage does the source give for C15A G29A G44A here?
A: Its self-cleavage is 0.04.

Q: With C15U C18U C23A G33A G44U C45G as the variant, how does the self-cleavage read?
A: Its self-cleavage is 0.13.

Q: Which self-cleavage does the source give for C15G G17A A26C U34C here?
A: The self-cleavage was 0.06.

Q: Which self-cleavage does the source give for C15G C31A G33C G35C here?
A: Its self-cleavage is 0.04.

Q: With C15A U43G G44A as the variant, how does the self-cleavage read?
A: The self-cleavage was 0.15.

Q: With C15A U32C C46A as the variant, how does the self-cleavage read?
A: Its self-cleavage is 0.06.

Q: For C15U A16G C42A G44A C45U, which self-cleavage is on record?
A: The self-cleavage was 0.04.

Q: For C15A G21C U28G, which self-cleavage is on record?
A: The self-cleavage was 0.11.

Q: For C15G G17A A41C, which self-cleavage is on record?
A: The self-cleavage was 0.07.

Q: With C15G A16U G17A U28C U34G as the variant, how does the self-cleavage read?
A: The self-cleavage was 0.

Q: Which self-cleavage does the source give for C15G U20C G21U A39C here?
A: The self-cleavage was 0.01.

Q: Which self-cleavage does the source give for C15U C23A A25C U43C here?
A: Its self-cleavage is 0.06.

Q: With C15G G19U G35U as the variant, how does the self-cleavage read?
A: The self-cleavage was 0.

Q: For C15A U20A G30U G33A G36A G44U C46U, which self-cleavage is on record?
A: The self-cleavage was 0.06.

Q: For C15A U28A G40A, which self-cleavage is on record?
A: The self-cleavage was 0.07.

Q: For C15G G27A G30C, which self-cleavage is on record?
A: Its self-cleavage is 0.03.

Q: For C15U G19U G22C C37U, which self-cleavage is on record?
A: Its self-cleavage is 0.1.

Q: Which self-cleavage does the source give for C15U A25C G40A here?
A: Its self-cleavage is 0.03.

Q: With C15A U32C G35U U38G G44U as the variant, how does the self-cleavage read?
A: The self-cleavage was 0.02.

Q: For C15G U20A G21U C46G, which self-cleavage is on record?
A: The self-cleavage was 0.01.

Q: For C15G U20G C31G G44C, which self-cleavage is on record?
A: The self-cleavage was 0.

Q: Which self-cleavage does the source give for C15G C23U C31A G33A here?
A: Its self-cleavage is 0.05.

Q: Which self-cleavage does the source give for C15G G22A C45U here?
A: Its self-cleavage is 0.04.

Q: For C15G G33C C46A, which self-cleavage is on record?
A: The self-cleavage was 0.09.

Q: For C15G A25U U32C A41C, which self-cleavage is on record?
A: The self-cleavage was 0.01.

Q: Which self-cleavage does the source give for C15U A26U U43C here?
A: Its self-cleavage is 0.08.

Q: With C15G U28G U32G G44U as the variant, how does the self-cleavage read?
A: The self-cleavage was 0.

Q: Which self-cleavage does the source give for C15G G19U A26C G27U G36C G40U here?
A: Its self-cleavage is 0.

Q: For C15A G27U U28A C46G, which self-cleavage is on record?
A: The self-cleavage was 0.03.

Q: With C15U C31U C45G as the variant, how does the self-cleavage read?
A: The self-cleavage was 0.07.

Q: With C15G C23U A25G U43A C45U as the variant, how does the self-cleavage read?
A: Its self-cleavage is 0.02.

Q: Which self-cleavage does the source give for C15G G17A U20A G22C G27C here?
A: The self-cleavage was 0.01.

Q: Which self-cleavage does the source give for C15U G17A G19A U20A A24U A41U here?
A: The self-cleavage was 0.06.

Q: Which self-cleavage does the source give for C15U A25U G29A G33A U34G here?
A: The self-cleavage was 0.03.

Q: For C15A G22C A24C G27C, which self-cleavage is on record?
A: The self-cleavage was 0.04.

Q: For C15A U28C G40A C42U, which self-cleavage is on record?
A: Its self-cleavage is 0.

Q: Which self-cleavage does the source give for C15U A16U G17C here?
A: The self-cleavage was 0.01.

Q: With C15U C37A C42U as the variant, how does the self-cleavage read?
A: The self-cleavage was 0.08.

Q: With C15U A26U G29A C31A as the variant, how does the self-cleavage read?
A: Its self-cleavage is 0.07.

Q: With C15A U32G U38A as the variant, how does the self-cleavage read?
A: Its self-cleavage is 0.01.

Q: Which self-cleavage does the source give for C15G C23A A26G U38G here?
A: The self-cleavage was 0.34.

Q: For C15A U34G G35C A41U, which self-cleavage is on record?
A: Its self-cleavage is 0.04.
